PubChem BioAssay AID1159614 (National Center for Advancing Translational Sciences (NCATS), 2016)
The campaign covered roughly 45,000 compounds. About 65 (0.1%) were called active. Calls come from the whole dose curve; as a rule, active = well fitted activation curve with a large enough effect; inconclusive = small, poorly fitted or top-dose-only effect; inactive = no such curve, though single readings can be large or run the other way. The list shows a part of the results.

Target: Galactocerebrosidase (Homo sapiens) (UniProt P54803)
Chain of UniProt P54803 (P54803 whole entry, looked up): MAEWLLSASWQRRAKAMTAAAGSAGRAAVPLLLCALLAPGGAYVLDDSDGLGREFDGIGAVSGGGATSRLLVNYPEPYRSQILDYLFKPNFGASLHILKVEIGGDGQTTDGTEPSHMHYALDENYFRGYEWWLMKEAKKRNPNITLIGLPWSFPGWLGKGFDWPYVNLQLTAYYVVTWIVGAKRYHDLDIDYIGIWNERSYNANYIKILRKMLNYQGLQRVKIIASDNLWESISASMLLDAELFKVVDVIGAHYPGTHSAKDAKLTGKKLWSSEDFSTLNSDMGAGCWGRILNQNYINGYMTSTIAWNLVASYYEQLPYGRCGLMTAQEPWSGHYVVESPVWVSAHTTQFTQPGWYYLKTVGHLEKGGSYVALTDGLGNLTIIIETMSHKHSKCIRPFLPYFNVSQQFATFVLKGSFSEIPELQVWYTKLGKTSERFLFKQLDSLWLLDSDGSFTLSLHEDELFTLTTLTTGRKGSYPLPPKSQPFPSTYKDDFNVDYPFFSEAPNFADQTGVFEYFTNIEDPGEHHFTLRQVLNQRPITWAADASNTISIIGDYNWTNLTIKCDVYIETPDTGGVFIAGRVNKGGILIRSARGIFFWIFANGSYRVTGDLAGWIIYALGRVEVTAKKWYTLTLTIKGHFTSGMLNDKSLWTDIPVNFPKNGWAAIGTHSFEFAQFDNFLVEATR
Assay: A Novel Cell-Based Assay to Identify Small Molecules for B -Galactocerebrosidase; note: 0% is about no effect; nearly all actives have a fitted effect of over 65% in size
Conditions: 145M-Twi-hGALC-G270D cells (Twitcher mouse brain line with human GALC G270D), HMU-beta-Gal fluorescence, 48 h; series mostly up to 57.5 µM; activation: at the top concentration
In short: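 Live 145M-Twi cells (Twitcher mouse brain-derived, GALC-null) stably expressing human GALC-G270D, with a wild-type GALC line, were compound-treated. Residual GALC activity was then read as fluorescence from 0.1 mM final HMU-β-gal at pH 5.2; higher signal means activation.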

activation, inactive:
Cc1ccc(-c2cc(N)n(-c3ccc(C)cc3)n2)cc1 -12.4%
Cc1c(C(=O)N2CCCCC2)c(S(=O)(=O)NCc2ccc(N(C)C)cc2)c(C)n1C -27.9%
Cc1[nH]n2c(=O)cc(-c3ccc(Cl)cc3)nc2c1-c1ccccc1 -8.56%
Cc1ccccc1CNC(=O)Cc1ccc(NC(=O)N2CCCCc3ccccc32)cc1 -9.76%
COc1ccc(N2CCN(C(CNC(=O)C(=O)NCc3cccnc3)c3cccnc3)CC2)cc1 (configuration not stated) -6.14%
Cn1c(=O)c2c(nc(N3CCOCC3)n2Cc2cccc(Br)c2)n(C)c1=O -11.7%
CCOC(=O)c1c(C)oc2nc(C)nc(N3CCN(c4ccccc4F)CC3)c12 -12.5%
Cc1ccc(-c2[nH]c3c(c2-c2c(-n4cccc4)n(C)c(=O)[nH]c2=O)c(=O)[nH]c(=O)n3C)cc1 -9.27%
Cc1ccc(NC(=O)CSc2nc3c([nH]c4ccccc43)c(=O)n2-c2ccccc2)cc1Cl 2.13%
CCOc1ccc(NC(=O)C2CCN(c3nnc(C)c4c(C)n(-c5ccccc5)nc34)CC2)cc1 -6.79%
Cc1cccc(N2CCN(C(=O)C3CCN(C(=O)c4cc5sccc5n4C)CC3)CC2)c1C -13.9%
COc1ccccc1CNC(=O)C(C)n1ccc2cc(S(=O)(=O)N3CCCC3)ccc21 (configuration not stated) -14.9%
COc1ccc(CNC(=O)c2ccc3nc(CCc4ccccc4)oc3c2)cc1 -11.1%
COc1ccc(NC(=O)CCS(=O)(=O)c2nc(-c3ccc4c(c3)OCO4)cc(C(F)(F)F)n2)cc1 -7.1%
Cc1c(C(=O)N2CCCC2)oc2c1-c1nn(CC(=O)NCc3ccccc3Br)cc1CC2 -6.14%
Cc1ccc(/C=C/c2onc(C)c2S(=O)(=O)N2CCC(C(=O)N3CCOc4ccc(C)cc43)CC2)cc1 3.28%
CSc1ccc(C2CC(=O)Oc3c2c(=O)n(C)c2ccccc32)cc1 (configuration not stated) -7.79%
Cc1ccc2[nH]cc(S(=O)(=O)c3ccc(C)c(C)c3)c(=O)c2c1 -3.77%
CCN(CC)CCNc1ccc(CO)c2sc3ccccc3c(=O)c12 -12.5%
CC1Cn2c(C(=O)NCCc3ccc(Cl)cc3)cc3cccc(c32)S1 (configuration not stated) -20.7%
Cc1ccc(F)cc1NC(=O)CCc1c(C)nn(-c2ccc(N3CCOCC3)nn2)c1C -8.77%
Cc1cc(=O)n(C(C)C(=O)N2CCCc3ccccc32)c2c1c(C)nn2-c1ccccc1 (configuration not stated) -36.4%
CCOc1ccc2nc3cc(N)ccc3c(N)c2c1 0.578%
COc1ccc(-c2cc(C(=O)Oc3ccc(C)cc3)c3cc(C)ccc3n2)cc1 -6.17%
O=C(CN1C(=O)COc2ccc(S(=O)(=O)N3CCCCCC3)cc21)Nc1cccc(Cl)c1 -5.86%
N[C@@H](Cc1ccc(O)cc1)C(=O)O -7.4% [at 11.5 µM]
Cc1ccc(-c2nnc(Nc3ccc(OC(F)(F)Cl)cc3)c3ccccc23)cc1S(=O)(=O)NC(C)(C)CO -13.5%
CC(=O)N1CCc2c(sc3nc(SCC(C)C)n(-c4ccc(C)c(Cl)c4)c(=O)c23)C1 -40.2%
Nc1ccc(NC(=O)c2cccc(C(=O)Nc3ccc(N)cc3Cl)c2)c(Cl)c1 8.12%
O=C(COc1ccccc1)N(Cc1cccnc1)c1nc2c(F)cccc2s1 -8.38%
CCCCn1c(=N)c(S(=O)(=O)c2ccc(C)cc2)cc2c(=O)n3cc(C)ccc3nc21 -8.27%
O=C(COc1ccc(Cl)cc1)N1CCN(Cc2ccc3c(c2)OCO3)CC1 -6.03%
CCc1nn2c(=O)cc(COC(=O)c3ccc(NC(=O)CCc4ccccc4)cc3)nc2s1 -13.7%
O=C(Nc1ccc(-c2nc3cc(NC(=O)c4ccc(F)cc4)ccc3o2)cc1)c1ccc(F)cc1 -16%
COc1cc(-c2nc(SCC(=O)Nc3ccc(C)cc3)c(-c3ccc(F)cc3)[nH]2)cc(OC)c1OC -8.88%
COc1cc(/C=C(\C#N)c2nc3ccccc3[nH]2)ccc1OCc1ccc(F)cc1 -21.5%
CCCN(CCC)CCCNC(=O)c1cnn(-c2ccc(F)cc2)c1-n1cccc1 -12.9%
CC(NC(=O)C1CCN(S(=O)(=O)c2ccccc2)CC1)c1ccccc1 (configuration not stated) -11.9%
Cc1nn(C(C)C(=O)Nc2ccc(C(C)C)cc2)c(=O)c2c1sc1ccccc12 (configuration not stated) -10.5%
CCc1nc(SC)ncc1C(=O)N1CCN(c2cc(Cl)ccc2C)CC1 0.881%
Cc1ccccc1CNC(=O)C1=Cc2ccccc2OC1 -6.52%
COc1ccccc1N1CCN(C(=O)c2cnn(-c3cccc(Cl)c3)c2C2CCN(C(=O)OC(C)(C)C)CC2)CC1 -12.2%
C#CC(C)(CC)NC(=O)Cn1nnc(-c2ccc(OCc3ccccc3C)cc2)n1 (configuration not stated) -1.93%
Cc1cccc(-c2nn3c(=O)cc(CN4CCN(C(=O)c5ccccc5Br)CC4)nc3s2)c1 0.27%
COc1ccccc1CNc1nc(-c2ccco2)nn1C(=O)c1cc(OC)c(OC)c(OC)c1 -16.3%
CN(Cc1cnc2nc(N)nc(N)c2n1)c1ccc(C(=O)N[C@@H](CCC(=O)O)C(=O)O)cc1 -12.3%
CCc1ccccc1NC(=O)c1cc(S(=O)(=O)N2CCc3ccccc32)ccc1F -9.25%
CCCn1c2ccccc2c2cnn(CC(=O)NCC3CCN(Cc4ccc(F)cc4)CC3)c(=O)c21 -9.48%
Cc1ccc2c(c1)c1c(c(=O)n(-c3cccc(Cl)c3)c(=O)n1CC(=O)NCCC1=CCCCC1)n2C 2.19%
COc1ccccc1CNC(=O)CCC1N=C2c3ccccc3N=C(SCC(=O)Nc3ccc(F)cc3)N2C1=O (configuration not stated) 2.66%
CCn1c(SCc2ccccc2C)nc(=O)c2c(C(=O)OC)cc(C3CC3)nc21 -49.8%
COc1ccc(CNc2nc(-c3ccccc3)nn2S(=O)(=O)c2ccccc2)cc1 -6.19%
CN(CC(=O)NCc1ccc(Cl)cc1)S(=O)(=O)c1ccc2[nH]c3c(c2c1)CCCC3 -15.9%
COc1ccc(NC(=O)CCS(=O)(=O)c2nc(-c3cccs3)cc(C(F)(F)F)n2)cc1 -10.1%
COc1cccc(C2c3c(oc4cc(C)cc(C)c4c3=O)C(=O)N2CCc2ccc(OC)c(OC)c2)c1 (configuration not stated) -15.8%
CCc1ccc(NS(=O)(=O)c2ccc3oc(=O)c4ncn(CC)c4c3c2)cc1 -6.56%
CCOC(=O)C1CCC(CN(Cc2ccc(OC)cc2)S(=O)(=O)c2ccc(F)c(C(=O)Nc3ccc(C)c(C)c3)c2)CC1 (configuration not stated) -0.582%
O=c1cc(CSc2ncn[nH]2)[nH]c2ccc(F)cc12 -13.4%
COc1ccc(-n2c(Cc3ccccc3)nnc2SCc2nc(-c3cccs3)no2)cc1 -3.59%
O=C(Nc1nnc(-c2cc(Cl)ccc2Cl)o1)c1ccc2c(c1)OCCO2 -8.15%
CCn1c(CN2CCOCC2)nc2cc(NC(=O)c3ccccc3[N+](=O)[O-])ccc21 -10.4%
CCN(C(=O)Cn1c(=O)n(CCCS(=O)(=O)C2CCCCC2)c(=O)c2ccccc21)c1cccc(C)c1 -8.1%
Cc1ccc(NC(=O)N2CCc3cc(S(=O)(=O)N4CCC(C)CC4)ccc32)cc1 -3.95%
COc1cccc(-n2cc(C(=O)Nc3cccc(C(F)(F)F)c3)c3ccccc3c2=O)c1 -9.38%
CC(C)Oc1ccc(CNC(=O)c2ccc(CS(=O)c3cccc(Cl)c3)o2)cc1 (configuration not stated) 2.3%
COc1ccccc1N1CCN(C(=O)Cn2ncc3ccsc3c2=O)CC1 -9.71%
CN(C)C1(CNC(=O)COc2ccc([N+](=O)[O-])cc2)CCCCC1 -12.9%
CCN(CC)S(=O)(=O)c1ccc2c(c1)N(CC(=O)N1CCN(c3cccc(Cl)c3)CC1)C(=O)CO2 -4.56%
CCC1CN(C(=O)N2CCC(C(=O)NCCc3cc(OC)ccc3OC)CC2)c2ccccc2O1 (configuration not stated) -10.9%
Cc1cc(Cl)ccc1NC(=O)Cn1nc(C)c2c(C)n(-c3ccccc3)nc2c1=O -22.8%
Cc1ccc(Cl)cc1Nc1nn2c(=O)c3ccc(C(=O)Nc4ccc(F)cc4)cc3nc2s1 -2.6%
CC1CCN(C(=O)Cn2c(=O)n(CCCCCC(=O)NCc3ccccc3Cl)c(=O)c3sccc32)CC1 -8.57%
CC(=O)Nc1cc(-c2nc3cc(Cl)ccc3o2)ccc1C -0.627%
CCOC(=O)c1ccccc1NC(=O)N1CCN(Cc2cc(=O)n3nc(-c4ccccc4)sc3n2)CC1 -18.3%
CC1=C(C(=O)Nc2ccccc2)C(c2ccccc2C)n2nc(SCC(=O)c3ccc(C)cc3)nc2N1 (configuration not stated) 4.81%
COCCCNc1nc2c(S(=O)(=O)c3ccccc3)nnn2c2ccc(Cl)cc12 -19.4%
O=C(NCc1cccs1)c1nn(-c2ccccc2Cl)nc1CO -9.57%
Cc1[nH]n(-c2ccccc2)c(=O)c1C(c1cc(Cl)ccc1O)c1c(C)[nH]n(-c2ccccc2)c1=O 7.05%
CCN(c1cccc(C)c1)S(=O)(=O)c1ccc(-n2cccn2)cc1 -6.49%
CCc1ccc(NC(=O)CCS(=O)(=O)c2cc3c(cc2Cl)NC(=O)CO3)cc1 2.42%
CCOc1ccc(-c2cc(CCCC(=O)NCCc3ccc(Cl)cc3)no2)cc1 -7.99%
O=C(NCCc1csc(-c2ccc(C(F)(F)F)cc2)n1)c1ccc(F)c(F)c1 -32.6%
Cc1cccc(NC(=O)CSc2nc(-c3cccs3)cc(C(F)(F)F)c2C#N)c1C 14.5%
COC(=O)c1c(-c2cccs2)csc1NC(=O)c1cccc(Cl)c1 -13.4%
COC(=O)c1c(-c2cccs2)csc1NC(=O)c1ccc(Br)cc1 -5.95%
Cc1cccc(-c2c3c(=O)n(C)c(=O)n(C)c3c3c(C)nc4ccccc4n23)c1 -7.2%
CCN(c1ccccc1)S(=O)(=O)c1cc(Br)cc2c1N(C(=O)C1CC1)CC2 3.44%
Cc1ccc(-c2cc(C(=O)NCc3cnn(C)c3C)c3ccccc3n2)cc1C -6.09%
Cc1ccc(C(=O)N2CCc3cc(CNC(=O)CSc4ccccc4)ccc32)cc1 -26.9%
COc1ccc(CNC(=O)C(=O)Nc2c3c(nn2-c2ccccc2)CSC3)cc1 -2.35%
COc1cc(OC)c(OC)cc1CN1CCc2nc(Nc3ccc4c(c3)OCCO4)ncc2C1 -9.71%
CCCNC(=O)C1=CC(c2ccc3c(c2)OCO3)=NS(=O)(=O)N1C -14.3%
